From PubChem BioAssay AID1030 (National Center for Advancing Translational Sciences (NCATS), 2008)
Among all 220,000 compounds or so, about 16,000 (7.3%) were called active. Inconclusive results, whose numbers are uncertain, are shown with a selection of clear calls. The call rests on the fitted dose curve; in most records, active means well fitted inhibition curve with a large enough effect (not every such curve was filed as active); inconclusive means small, poorly fitted or top-dose-only effect, or another doubt; inactive means no such curve, though single readings can be large or run the other way. Where the call is inconclusive, the potency comes from a doubtful curve fit.

target: Aldehyde dehydrogenase 1A1 (Homo sapiens) (UniProt P00352); assay: qHTS Assay for Inhibitors of Aldehyde Dehydrogenase 1 (ALDH1A1); settings: Purified ALDH1A1, NADH fluorescence, propionaldehyde substrate; series mostly up to 75.3 µM; activity, negative = inhibition: at the top concentration;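 on activity, negative = inhibition: plate controls were no enzyme wells and a reference inhibitor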
Sequence of UniProt P00352 (P00352 whole entry, looked up): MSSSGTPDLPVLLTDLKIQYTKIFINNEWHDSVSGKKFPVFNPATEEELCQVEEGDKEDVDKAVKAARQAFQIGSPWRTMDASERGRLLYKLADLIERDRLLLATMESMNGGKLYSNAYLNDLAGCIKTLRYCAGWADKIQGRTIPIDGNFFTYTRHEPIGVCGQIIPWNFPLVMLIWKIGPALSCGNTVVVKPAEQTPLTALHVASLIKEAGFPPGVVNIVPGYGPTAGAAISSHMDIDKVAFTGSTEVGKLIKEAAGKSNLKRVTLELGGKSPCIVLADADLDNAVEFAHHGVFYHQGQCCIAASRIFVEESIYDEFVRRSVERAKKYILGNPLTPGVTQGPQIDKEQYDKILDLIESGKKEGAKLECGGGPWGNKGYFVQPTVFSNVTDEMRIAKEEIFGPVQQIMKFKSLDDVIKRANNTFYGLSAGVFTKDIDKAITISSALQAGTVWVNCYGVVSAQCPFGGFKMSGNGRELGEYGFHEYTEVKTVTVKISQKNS
Potency means the concentration at half of the fitted maximal effect; tags describe the fitted curve by direction and shape.

Potency, inconclusive:
COC(=O)c1sccc1NC(=O)c1cc(OC)c(OC)c(OC)c1 28.2 µM [inhibitor, single point], Cc1ccc(C2NC(=S)NC3=C2C(=O)CCC3)cc1 (centres undefined) 28.2 µM [inhibitor, single point], O=C(O)c1cc(-c2cccc(Cl)c2)nc2nc(N3CCCCC3)sc12 28.2 µM [inhibitor, partial curve], COc1ccccc1-n1nnnc1SCC(=O)NC1CCCC1 22.4 µM [inhibitor, partial curve], COCc1[nH][nH]c(=O)c1C=Nc1ccc(Oc2ccccc2)cc1 39.8 µM [inhibitor, single point], O=C(NCCc1c[nH]c2ccccc12)c1cc2sccc2n1Cc1ccccc1 25.1 µM [inhibitor, single point], CCCN(CCC)C(=O)CC(c1ccccc1)c1ccc(C)cc1O (centres undefined) 39.8 µM [inhibitor, single point], CCCSc1nc2c(c(=O)[nH]c(=O)n2C)n1CCc1ccccc1 14.1 µM [inhibitor, partial curve], O=C(Nc1cccc(-c2cnc3ccccc3n2)c1)c1cccc(NC(=O)c2ccco2)c1 35.5 µM [inhibitor, single point], CCOC(=O)c1cnn(-c2ccc(C)cc2)c1N 17.8 µM [inhibitor, single point], CCCS(=O)(=O)N1CCN(Cc2ccco2)CC1 28.2 µM [inhibitor, single point], CCN(CC(=O)Nc1ccccc1OC)CC(=O)Nc1ccccc1-c1ccccc1 39.8 µM [inhibitor, single point], CCCCOCCCn1c(-c2ccco2)nc2nc3ccccc3nc21 3.55 µM [inhibitor, full curve], Cc1c(C(=O)c2ccc(Cl)c([N+](=O)[O-])c2)c2ccccn2c1CCC#N 25.1 µM [inhibitor, single point], CC(C)(C)C(=O)Nc1ccc(N2CCN(c3ccc(C(F)(F)F)cn3)CC2)nc1 39.8 µM [inhibitor, single point]

Potency, active:
COc1ccc(CCN2C(=O)CC(Sc3ncccc3C(=O)O)C2=O)cc1OC (centres undefined) 3.55 µM, NC(N)=NS(=O)(=O)c1ccc(NC(=S)NC(=O)c2ccc(Br)cc2)cc1 10 µM

activity, negative = inhibition, inactive:
Cc1[nH]n(-c2ccccc2)c(=O)c1C(C[N+](=O)[O-])c1ccc(F)cc1 (centres undefined) -5.72%, COc1cccc(NC(=O)CN(C)C(C)C(=O)Nc2ccc(C#N)cc2)c1 (centres undefined) 1.94%
